Test results from PubChem BioAssay AID686978 (National Center for Advancing Translational Sciences (NCATS), 2013).
Among all 420,000 compounds or so, about 64,000 (15%) were called active. Inconclusive results, whose numbers are uncertain, are shown with a selection of clear calls. Calls come from the whole dose curve; as a rule, active = well fitted inhibition curve with a large enough effect; inconclusive = small, poorly fitted or top-dose-only effect; inactive = flat fitted curve, though single readings scatter. No potency is given beside an inconclusive call; the fits are too rough.

Assay: qHTS for Inhibitors of human tyrosyl-DNA phosphodiesterase 1 (TDP1): qHTS in cells in absence of CPT; note: nearly all actives have a fitted effect of over 55% in size
Conditions: DT40 Tdp1-/- hTDP1 cells, no CPT, ATP luminescence, 48 h; activity change, negative = growth inhibition: at 46.2 µM (top of the series)
Summary of the method: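 Compound effects on proliferation are scored in DT40 Tdp1-/-;hTDP1 cells in the absence of CPT. ATP levels (CellTiter-Glo luminescence) are recorded after a ≥48 hr, 37 °C incubation.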
% is set by controls: 0 for no effect and ±100 for the full control effect; potency is the fitted concentration of half-maximal effect; tags give direction and shape of the fitted curve.

Compound	Potency	activity change, negative = growth inhibition
CCc1c(C)sc2c1CCN(C(=O)Nc1cc(C)cc(C)c1)C2c1ccccc1 (configuration not stated)	active: 8.2 µM	
CC(C)Cc1ccc(C(C)C(=N)N)cc1 (configuration not stated)	active: 6.51 µM	
Cc1ccc(S(=O)(=O)N2[C@@H](Cc3ccccc3)CO[C@H]2CC(=O)OCc2ccccc2)cc1	active: 23.1 µM	
CCOc1ccc(C(=O)Nc2nc(C)cc(C)n2)cc1[N+](=O)[O-]	inconclusive [inhibitor, partial curve, poor fit]	
CCSc1nnc(NC(=O)CSc2nccn2-c2cccc(C)c2C)s1	inconclusive [inhibitor, single point]	
COC(=O)c1cc(C(=O)c2cccc(Cl)c2Cl)cn1C	inconclusive [inhibitor, partial curve]	
CC(=O)Nc1ccc2c(c1)Cc1c-2cc(Cl)c(NC(C)=O)c1Cl	inactive	
CC(Nc1ccc2c(c1)OCCO2)C(=O)N1c2ccccc2CC1C (configuration not stated)	inconclusive [inhibitor, partial curve]	
CCCc1[nH]n(-c2ccc(F)cc2)c(=O)c1C=NCC1CCCO1 (configuration not stated)	inactive	
Cc1noc(C)c1S(=O)(=O)NC(=O)C1(C)CCN1C(=O)Cc1ccc(Cl)cc1Cl (configuration not stated)	inactive	
CSc1nc2cc(C)nn2c(-c2ccc(C(C)(C)C)cc2)c1C#N	inconclusive [inhibitor, full curve]	
COc1ccc(C(NC(=O)C(C)C)c2c(O)ccc3ccccc23)cc1 (configuration not stated)	inconclusive [inhibitor, single point]	
COc1ccc2nc(NC(=O)[C@@H]3CCCN3C(=O)c3cccs3)sc2c1		inconclusive: -30.9% [inhibitor]
O=P(O)(O)OP(=O)(O)OP(=O)(O)O	inactive	
N#Cc1cc(C(=O)c2ccccc2O)cn(-c2ccc(Cl)cc2)c1=O	inconclusive [inhibitor, partial curve]	
COCCNC(=O)C(C)OC(=O)C1=Cc2ccccc2OC1 (configuration not stated)	inactive	
CCOC(=O)C(c1nc2ccccc2[nH]1)n1c(-c2ccccn2)nc2ccccc21 (configuration not stated)	inactive	
COCCCNC(=O)CSc1nc2cc3c(cc2c(=O)n1CCCCCC(=O)NCc1ccc2c(c1)OCO2)OCO3	inactive	
COc1ccc(OCC2NCCc3cc(OC)c(OC)cc32)cc1 (configuration not stated)	inconclusive [inhibitor, single point]	
COc1ccc(C)cc1N(CC(=O)N1CCCCCC1)S(=O)(=O)c1ccc(C)cc1	inconclusive [inhibitor, single point]	
Cc1ccc(N2C(=O)CN(Cc3cccs3)C2=S)cc1C		inconclusive: -34.9% [inhibitor]
Cc1cc(NC(=O)CSc2cn(CCNC(=O)c3ccccc3)c3ccccc23)no1	inconclusive [inhibitor, single point]	
COc1ccc(Cn2cc(CN3CC(N4CCN(C5CCN(C)CC5)CC4)CS3(=O)=O)nn2)cc1 (configuration not stated)	inactive	
Cn1c(Cn2c3ccccc3c3ccccc32)n[nH]c1=S	inconclusive [inhibitor, partial curve, poor fit]	

Compound	Potency	activity change, negative = growth inhibition
CC(C)NC(=O)N(O)C1N(C(C)C)C(=O)N(Cc2ccc3c(c2)OCO3)C1(C)C (configuration not stated)	inactive	
O=C1/C(=C\c2ccco2)SC(=S)N1c1ccccc1	inconclusive [inhibitor, single point]	
CCc1cc(=S)n2c([nH]c3ccccc32)c1C#N	active: 23.1 µM	
CCOc1ccc(NS(=O)(=O)c2ccc3c(c2)N(C(C)=O)CCS3)cc1	inconclusive [inhibitor, partial curve, poor fit]	
CCc1ccc(N(C(=O)c2csnn2)C(C(=O)NCc2ccccc2)c2ccco2)cc1 (configuration not stated)		inconclusive: -31.2% [inhibitor]
CC(OC(=O)C1=Cc2ccccc2OC1)C(=O)NCc1ccco1 (configuration not stated)	inconclusive [inhibitor, single point]	
CCCC1CCC(=NNC(=O)CNc2ccc(OC)cc2)CC1 (configuration not stated)	inconclusive [inhibitor, partial curve, poor fit]	
O=C(COc1ccc(Cl)cc1Cl)N1CCN(c2ccccn2)CC1	inconclusive [inhibitor, partial curve, poor fit]	
COc1ccc(Cl)cc1CN1C(=O)NC2(CCCCCC2)C1=O	inconclusive [inhibitor, single point]	
CC(c1nnc(SCC(=O)N(C)C2CCS(=O)(=O)C2)n1-c1ccccc1)N(C)C (configuration not stated)	inactive	
CCN1CCCC1CNC(=O)c1ccc2c(c1)NC(=O)/C(=C\c1ccccc1Cl)S2 (configuration not stated)	inconclusive [inhibitor, single point]	
CCc1ccc(S(=O)(=O)Nc2ccc3[nH]c(=O)sc3c2)cc1	inconclusive [inhibitor, single point]	
N#Cc1ccccc1COC(=O)CCC(=O)c1cccs1	inactive	
COc1cc2ccccc2cc1C(=O)NC1CCCC1	inconclusive [inhibitor, single point]	
CS(=O)(=O)c1ccc(C(=O)OCC(=O)NC23CC4CC(CC(C4)C2)C3)cc1[N+](=O)[O-]	inconclusive [inhibitor, single point]	
O=C(Nc1cccc(Cl)c1Cl)c1snnc1-c1ccccc1	inconclusive [inhibitor, single point]	
CCOC(=O)/C(C#N)=C/c1cccn1-c1ccc(Cl)cc1	inactive	
Cc1cccc(NC(=O)c2sc3nc4c(cc3c2N)CN(C(C)C)CC4)c1	inconclusive [inhibitor, single point]	
O=c1oc2ccc3ccccc3c2cc1-c1nnc(-c2ccccc2)o1	inconclusive [inhibitor, single point]	
Cc1nn(-c2ccccc2)c(Cl)c1/C=N/Nc1nc2ccccc2[nH]1	inactive	
Cc1ccc2cc(C3C(C#N)=C(N)Oc4c3ccc3cccnc43)c(=O)[nH]c2c1 (configuration not stated)	inconclusive [inhibitor, single point]	
Cc1ccc(C)c(-n2cc(CNC(C)Cn3cncn3)c(-c3ccccc3)n2)c1 (configuration not stated)	inconclusive [inhibitor, single point]	
CC(C)(C)c1ccc(/C=N/Nc2cccc(C(=O)O)c2)cc1	inactive	
CCCCc1cc2c(cc1NC(=O)CN1CCCCC1)OCCO2		inconclusive: -36% [inhibitor]

Compound	Potency	activity change, negative = growth inhibition
Cc1cccc(N2CCN(C(=O)c3[nH]c(C(F)(F)F)nc3-c3ccccc3)CC2)c1C	active: 1.3 µM	
CCN1C(=O)C(CC(=O)Nc2ccc(OC)cc2)N(Cc2ccco2)C1=S (configuration not stated)	inconclusive [inhibitor, partial curve]	
O=C(Nc1cc(SCCO)cc([N+](=O)[O-])c1)c1ccco1		inconclusive: -31.2% [inhibitor]
COc1ccc(NS(=O)(=O)c2cccc(C(=O)NCC(c3ccccc3OC)N3CCCC3)c2)cc1 (configuration not stated)	inconclusive [inhibitor, single point]	
CC(C)(CO)NCc1c(OCc2ccc(Cl)cc2)ccc2ccccc12	inconclusive [inhibitor, single point]	
CC1=C(C(=O)OC2CCCCCC2)C(c2cccc(F)c2F)CC(=O)N1 (configuration not stated)	inconclusive [inhibitor, single point]	
O=C(CCN1C(=O)/C(=C/c2ccc3c(c2)OCO3)SC1=S)Nc1ccccc1	inconclusive [inhibitor, partial curve]	
CC(OC(=O)c1cc(S(=O)(=O)N(C)c2ccccc2)ccc1Cl)C(=O)Nc1ccc2c(c1)OCCO2 (configuration not stated)	inactive	
Cn1cc(C(=O)NCc2ccc(Cl)cc2)c(=O)c2cc(S(=O)(=O)N3CCOCC3)ccc21	inconclusive [inhibitor, partial curve]	
CS(=O)(=O)Nc1ccc(-c2ccc3nccn3c2)cc1	inactive	
COc1ccc(C(=O)CCC(=O)NCCc2c[nH]c3ccccc23)cc1	inactive	
O=C(O)C1=CCCN(CCON=C(c2ccccc2)c2ccccc2)C1	inactive	
Cc1nc(SCc2ccc(Br)cc2)[nH]c(=O)c1C	inconclusive [inhibitor, single point]	
COc1ccc(/C=N/Nc2cc(N3CCOCC3)nc(C)n2)c(OC)c1	active: 20.6 µM	
O=C(NCC(c1ccco1)N1CCN(c2ccccc2F)CC1)c1ccco1 (configuration not stated)	inconclusive [inhibitor, single point]	
Nc1nc(-c2cc(-c3ccccc3)no2)cs1	inconclusive [inhibitor, single point]	
COc1ccc(CC(=O)N/N=C/c2cc(Br)cs2)cc1OC	inconclusive [inhibitor, single point]	
COC(=O)c1cnn2c1C(=O)N(Cc1cccs1)CC2	inactive	
NS(=O)(=O)c1ccc(NCC2COc3ccccc3O2)c([N+](=O)[O-])c1 (configuration not stated)	inconclusive [inhibitor, single point]	
Fc1ccc(Nc2nc(SCc3ccccc3F)nc3ccccc23)cc1	active: 16.4 µM	
Cc1cc(S(=O)(=O)N2CCCOC2CNC(=O)C(=O)NCc2cccs2)ccc1F (configuration not stated)	inconclusive [inhibitor, single point]	
Cc1ccc(Cn2c(SCC(=O)NCc3ccccc3Cl)nc3ccsc3c2=O)cc1	active: 20.6 µM	
Cc1ccc(S(=O)(=O)N/N=C/c2ccc(OC3CSC3)cc2)cc1	inconclusive [inhibitor, partial curve]	
CC(NC(=O)c1ccncc1)c1ccc(Br)cc1 (configuration not stated)	inconclusive [inhibitor, full curve]	
